Measurements published in the supplement of paper PMC12632987.
The full ranking holds about 4,500 sequences; the median of “median log2 fold change of GCK-ALFA target abundance (FLAG IP / Myc IP barcode read proportion)” is about 0.078, and the lowest 2% start at about -0.6. The list shows a part of the results.

B1: GBRAP_39_5717 (protein)
chain: EEEEEAENIFSYYEAVGAAEMYKRGISLEELFERTLAEARELAADDPELLAALEELEELALKAGDEAKLAATGIMVRLVEGAPREEVLADLKKLIAYLKS
B2: GBRAP_139_3758 (protein)
chain: MKEEEIKKKAEEFFEEMKKDFEKAVEKTAEYLASLSDEERLKFTEALAKIAAKEGEEFAEKFKEALVEKIKELTKDEDDALAVEGTMETAIAREEMKKEA
B3: GBRAP_153_3941 (protein)
chain: EEERKKRLEEAKELADKIEKEGLPEELLLEFARLVYSLDEEEKLEVAKYINTLSPETVYAIFLTLATKVPFTTEELLAMITELNEENEAAALEALVEAQK
B4: GBRAP_160_4607 (protein)
chain: SEKLEELKKFVKEEFEEAKELIVGQTTEERATIVDVTFGQIIIEAIELEAVSDETIEKFAEIGDETVATILSNPDLTDEEIKALIDEAEEKILKLIEEEE
B5: GBRAP_80_6765 (protein)
chain: DRAALEAALAELEKLLPDLAPAVRAMVEKALALGVPAALLARFVKAAVELARKDKEKAREIITEMIEEVNELIAEGDKEGVIATIADYEGEMLLAVEETE
B6: GBRAP_160_4416 (protein)
chain: EETIKEVEELLDETKELVLELVEEGERENALAAARVGAGEILLYLDEKEEVSEEAREEVDKVLDELIAELEANANATPEEVRKMLDEAKEKVLEILKKHT
B7: GBRAP_26_5437 (protein)
chain: LEEVEREAIRRLEEVAARIGDPEKAAAALAEAITLLHDFVETAEEKNLSPEELDELAEEEVEELREFLEDLGLSEELREELVETFREELERIKEALLKER
B8: GBRAP_39_5704 (protein)
chain: SMEEEAEEIFSYLEALGAKLAVERGLDMEEVEKETEELAKEVIEKYPELKELVEELLKLAKEKGDTAVLAAYGLLELIKEGLPLEEAREKLELLIKYLKK
B9: GBRAP_11_2749 (protein)
chain: KKEELKKIAELAEEAAKLLEALIKEGVDNEELIKKLKEKVKELEELVKKHGDESLKKLVEILKEEIEKALEDPENAEQYFKLALATARVLAGQVLLDIEE
B10: GBRAP_11_2716 (protein)
chain: KKEKLKELAKKAEELAKEVEKLIKEGPKEEELKKLKEEVKKLAEEAKKAGVDESIVKTLEIAAEDIAKAIEDPENVVEHLNNAKAALQVAAGDLLLEAEE
B11: GBRAP_52_6059 (protein)
chain: MEERIEELARRIAEAIAAGDLERALELLRRAIKELSVEEIRRMLELAAERVAKLGEEAHERFVELLEEAEELMKEAGISEEEAELIVGDAEAALARAVAA
B12: GBRAP_16_4995 (protein)
chain: DELLAKVEGAAEFAQLLLDAVKDEDPEAAKLVQEALDKLKAAAELLKKGGDKEEVEKELKAALKTLKELLKRYEDKDPELAAIVQTLIDQVKEALELLKK
B13: GBRAP_160_4321 (protein)
chain: SALMEELKKEIEEIAEEAKELIEGESPEQRRTIVKVALGEILLLAIENPEISDELEDKIAEIADAAEAELDANPDLSEEEVKELLEKAVKEILELIEKEE
B14: GBRAP_11_2699 (protein)
chain: KKEKLEELRKLAEELAKVLEELIKEGPDNEELRKKAEELLEKIKKLAEEYGDEGMKTLTKILEELWKKALEDKENRVEYLKEAKATARVLAGQALLEIEE
B15: GBRAP_160_4204 (protein)
chain: GEKVEKIIKELREETEEVIEELDEVSVEEAANFADVEFGSVLMEAVELGEENDEILDVIADAGDEVVEYLKENKDASVEERKEKIREITDKAIEKIKEIA
B16: GBRAP_139_3716 (protein)
chain: SALEEKVKKAKEIVKKYRNDLEKLAKELAKLISEEDDEGALAIARAAAEEMKDWSWEKWEEFVELLSKELKKLGFSEDDILAIEGVLEAVYAKHELAKLE
B17: GBRAP_184_5055 (protein)
chain: AIKERVIEAETEEELEEKLEELEEELKDFKGELILLVRVPEFTEEMVELLMERLKEILEKGYVSSATVGLDGKMSEEVIDLAVKLADEAGIKLVIALEEE
B18: GBRAP_128_3165 (protein)
chain: SPEEIVEEVRELVEKMIEADDEEARELAERIADIFLEADLETAERIAEVIIELLPELSEEKLEILIDVLRERRPEFTPEKQELVAEVMVEAGERLLELEE
B19: GBRAP_52_6072 (protein)
chain: MEELIRELAERITAAIAAGDLEEALALLRKAIEELSKEEIRELLVLTARRVAGLSEEAHERFVDLMVEVEDLLIEAGISEEDALLIVGDAEAELAREVAA
B20: GBRAP_128_3170 (protein)
chain: SSEEIVEEVRKLLKEMLTASPEEQRKLAEEIVELFGKADLETAEKIAEVIIELAPEFTEEQLEILADVLREKMPELDPEKQELAAEVIVELGERILELEE
B21: GBRAP_137_3653 (protein)
chain: AKININIEIDGDFADITIKADTKELAELAADILAEVADEEGVAYAISLDEENKTVYADLLGEREKIRRAIEEFVKRLSEKADVNVTLTEDGKTTKETLKK
B22: GBRAP_35_5582 (protein)
chain: DDVEIILETARDFAEAAIEALKGDDLEEAIRMTEAFVRAAELAIEDLKNDLEALKELAKLLEEVLKAAKEYASDNPEMQKNIERLEELLKRAKELAKKVE
B23: GBRAP_11_2664 (protein)
chain: KEETLKKALELAKELAEALKKLIEEGIDNEELIEKAEELLEELEKLAKEKLSKALQSDVEVMKELWEEFLEDEENRLEYAEQLLAAARVLAGNLELELEE
B24: GBRAP_128_3333 (protein)
chain: MDEEKVEKVKELVEKIIEADKEEARKLAEEIAELLKEMSLEEVKKAVEEIKKLLPKLSAEKLEILADVLREKLPEFEPEKAEVVADLQVEALNLAVEKEE
B25: GBRAP_39_5662 (protein)
chain: DEEEENELLFEYYLALAEKERIERGISDEEMIEEGKKLLTELAKEHPEIKEEVEALLKEVDKGDEDVGLAAYGIALLYQEGTPLEEIKEHIEKLLKYVKS
B26: GBRAP_160_4410 (protein)
chain: SEELKKTAEEILEAVEEELELLLELGKIDPKAAAGLLEGTILLEVFEDDSLTEEEEEKLEALAKELAATLEELLKKEGELTEEIKERLLELARKGLEEIL
B27: GBRAP_160_4346 (protein)
chain: SEAAEELIKKVKEATEKVIEELDKVSVEEAAVIAAGEFGAVAMEAALDERYSDEMVDVVIDAMDEIIKFLKENKDASVEELKKGIKEITEKAIKKIKEIA
B28: GBRAP_160_4331 (protein)
chain: MEKFEKLIEYIDEEFERTKELIEGESIEQVKVLIRGTFGEIAMEFSEEESISDELVDFVIEVEDETIKTLEENPDLSLEEIKELIEEAREKIKEALKKEA
B29: GBRAP_184_5168 (protein)
chain: MIEEKEIEVKNKEEAKKKMEEIKEEVKDKKAELYVIVKTEKLTKEIAETIIEELKKMKEEGYVKKIVLDITGEIDEETLDHAIELADEAGIQLVIAIDEE

Molecular target: GABARAP, O95166
Sequence (O95166 whole entry, the tested form may be a part): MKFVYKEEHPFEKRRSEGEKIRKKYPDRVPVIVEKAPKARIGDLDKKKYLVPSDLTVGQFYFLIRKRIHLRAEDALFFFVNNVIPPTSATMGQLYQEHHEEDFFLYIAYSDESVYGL
Test: median log2 fold change of GCK-ALFA target abundance (FLAG IP / Myc IP barcode read proportion) (log2 ratio); each designed protein is fused to an ALFA-tag nanobody in HEK293 cells to bring the named protein to FLAG-tagged glucokinase (GCK); Myc marks an untargeted standard; higher = target protein stabilised (more abundant)
Settings: target protein: 3xFLAG-MCP-GCK-ALFA reporter; HEK293 landing pad (RPLP)
How it was run: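 HEK293 landing-pad cells received a recombined binder library fused to the ALFA nanobody and were induced with 2 μg mL^−1 doxycycline, then transfected with a plasmid encoding a FLAG-tagged target and a Myc-tagged standard. Lysates were collected after 48 h for anti-FLAG and anti-Myc immunoprecipitation, and the circular RNA barcodes were reverse transcribed, amplified and sequenced. Target abundance for each binder is the median log2 ratio of FLAG to Myc barcode read proportions. Barcodes had to reach a proportion of at least 10^−7 in both replicates, each binder needed at least 3 barcodes per replicate, a pseudocount of 10^−6 was applied, and the two replicates were pooled.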

Binder	median log2 fold change
B1	0.239
B2	0.361
B3	0.148
B4	-0.243
B5	0.0581
B6	0.109
B7	-0.0854
B8	0.207
B9	0.275
B10	0.302
B11	0.0176
B12	0.0475
B13	-0.0253
B14	0.198
B15	-0.0853
B16	0.146
B17	-0.0418
B18	-0.105
B19	-0.594
B20	0.191
B21	-0.129
B22	0.182
B23	0.348
B24	0.156
B25	-0.103
B26	-0.231
B27	-0.162
B28	-0.223
B29	-0.0779
